The other results are listed elsewhere or left out.
How the values were obtained:
Assay in all cases: glycan array binding signal (z-score within array); higher = stronger binding
Conditions in all cases: glycan notation: IUPAC condensed, linker removed
[1] = target: Gal(b1-4)GlcNAc(b1-3)Gal(b1-4)GlcNAc(b1-3)Gal(b1-4)GlcNAc
Procedure, shortened: (§1)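 From the Consortium for Functional Glycomics database, 3228 arrays were curated, keeping only those whose protein sequence was available. Binding is given as a within-array Z-score averaged across arrays sharing a protein sequence and across linkers. Negative Z-scores can be read as non-binding.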

[2] = target: Gal(b1-4)GlcNAc(b1-3)Gal(b1-4)GlcNAc(b1-3)Gal(b1-4)GlcNAc(b1-2)Man(a1-3)[Gal(b1-4)GlcNAc(b1-3)Gal(b1-4)GlcNAc(b1-3)Gal(b1-4)GlcNAc(b1-2)Man(a1-6)]Man(b1-4)GlcNAc(b1-4)GlcNAc
Procedure, shortened: as §1

[3] = target: Gal(b1-4)GlcNAc(b1-3)Gal(b1-4)GlcNAc(b1-3)Gal(b1-4)GlcNAc(b1-2)Man(a1-3)[Gal(b1-4)GlcNAc(b1-3)Gal(b1-4)GlcNAc(b1-3)Gal(b1-4)GlcNAc(b1-2)Man(a1-6)]Man(b1-4)GlcNAc(b1-4)[Fuc(a1-6)]GlcNAc
Procedure, shortened: as §1

[4] = target: Gal(b1-4)GlcNAc(b1-3)Gal(b1-4)GlcNAc(b1-3)Gal(b1-4)GlcNAc(b1-2)[Gal(b1-4)GlcNAc(b1-3)Gal(b1-4)GlcNAc(b1-3)Gal(b1-4)GlcNAc(b1-6)]Man(a1-6)[Gal(b1-4)GlcNAc(b1-3)Gal(b1-4)GlcNAc(b1-3)Gal(b1-4)GlcNAc(b1-2)Man(a1-3)]Man(b1-4)GlcNAc(b1-4)[Fuc(a1-6)]GlcNAc
Procedure, shortened: as §1

[5] = target: Gal(b1-4)GlcNAc(b1-3)Gal(b1-4)GlcNAc(b1-3)Gal(b1-4)GlcNAc(b1-3)Gal(b1-4)GlcNAc(b1-2)Man(a1-3)[Gal(b1-4)GlcNAc(b1-3)Gal(b1-4)GlcNAc(b1-3)Gal(b1-4)GlcNAc(b1-3)Gal(b1-4)GlcNAc(b1-2)Man(a1-6)]Man(b1-4)GlcNAc(b1-4)GlcNAc
Procedure, shortened: as §1

[6] = target: Gal(b1-4)GlcNAc(b1-3)Gal(b1-4)GlcNAc(b1-3)Gal(b1-4)GlcNAc(b1-3)Gal(b1-4)GlcNAc(b1-2)Man(a1-3)[Gal(b1-4)GlcNAc(b1-3)Gal(b1-4)GlcNAc(b1-3)Gal(b1-4)GlcNAc(b1-3)Gal(b1-4)GlcNAc(b1-2)Man(a1-6)]Man(b1-4)GlcNAc(b1-4)[Fuc(a1-6)]GlcNAc
Procedure, shortened: as §1

[7] = target: Gal(b1-4)GlcNAc(b1-3)Gal(b1-4)GlcNAc(b1-3)Gal(b1-4)GlcNAc(b1-3)Gal(b1-4)GlcNAc(b1-2)[Gal(b1-4)GlcNAc(b1-3)Gal(b1-4)GlcNAc(b1-3)Gal(b1-4)GlcNAc(b1-3)Gal(b1-4)GlcNAc(b1-6)]Man(a1-6)[Gal(b1-4)GlcNAc(b1-3)Gal(b1-4)GlcNAc(b1-3)Gal(b1-4)GlcNAc(b1-3)Gal(b1-4)GlcNAc(b1-2)Man(a1-3)]Man(b1-4)GlcNAc(b1-4)[Fuc(a1-6)]GlcNAc
Procedure, shortened: as §1

[8] = target: Gal(b1-4)GlcNAc(b1-3)Gal(b1-4)GlcNAc(b1-3)Gal(b1-4)GlcNAc(b1-3)Gal(b1-4)GlcNAc(b1-3)Gal(b1-4)GlcNAc(b1-2)Man(a1-3)[Gal(b1-4)GlcNAc(b1-3)Gal(b1-4)GlcNAc(b1-3)Gal(b1-4)GlcNAc(b1-3)Gal(b1-4)GlcNAc(b1-3)Gal(b1-4)GlcNAc(b1-2)Man(a1-6)]Man(b1-4)GlcNAc(b1-4)GlcNAc
Procedure, shortened: as §1

[9] = target: Gal(b1-4)GlcNAc(b1-3)Gal(b1-4)GlcNAc(b1-3)Gal(b1-4)GlcNAc(b1-3)Gal(b1-4)GlcNAc(b1-3)Gal(b1-4)GlcNAc(b1-2)Man(a1-3)[Gal(b1-4)GlcNAc(b1-3)Gal(b1-4)GlcNAc(b1-3)Gal(b1-4)GlcNAc(b1-3)Gal(b1-4)GlcNAc(b1-3)Gal(b1-4)GlcNAc(b1-2)Man(a1-6)]Man(b1-4)GlcNAc(b1-4)[Fuc(a1-6)]GlcNAc
Procedure, shortened: as §1

[10] = target: Gal(b1-4)GlcNAc(b1-3)Gal(b1-4)GlcNAc(b1-3)Gal(b1-4)GlcNAc(b1-3)Gal(b1-4)GlcNAc(b1-3)Gal(b1-4)GlcNAc(b1-2)[Gal(b1-4)GlcNAc(b1-3)Gal(b1-4)GlcNAc(b1-3)Gal(b1-4)GlcNAc(b1-3)Gal(b1-4)GlcNAc(b1-3)Gal(b1-4)GlcNAc(b1-6)]Man(a1-6)[Gal(b1-4)GlcNAc(b1-3)Gal(b1-4)GlcNAc(b1-3)Gal(b1-4)GlcNAc(b1-3)Gal(b1-4)GlcNAc(b1-3)Gal(b1-4)GlcNAc(b1-2)Man(a1-3)]Man(b1-4)GlcNAc(b1-4)[Fuc(a1-6)]GlcNAc
Procedure, shortened: as §1

[11] = target: Gal(b1-4)GlcNAc(b1-3)Gal(b1-4)GlcNAc(b1-3)Gal(b1-4)GlcNAc(b1-3)Gal(b1-4)GlcNAc(b1-3)Gal(b1-4)GlcNAc(b1-3)Gal(b1-4)GlcNAc(b1-2)Man(a1-3)[Gal(b1-4)GlcNAc(b1-3)Gal(b1-4)GlcNAc(b1-3)Gal(b1-4)GlcNAc(b1-3)Gal(b1-4)GlcNAc(b1-3)Gal(b1-4)GlcNAc(b1-3)Gal(b1-4)GlcNAc(b1-2)Man(a1-6)]Man(b1-4)GlcNAc(b1-4)GlcNAc
Procedure, shortened: as §1

[12] = target: Gal(b1-4)GlcNAc(b1-3)Gal(b1-4)GlcNAc(b1-3)GalNAc
Procedure, shortened: as §1

[13] = target: Gal(b1-4)GlcNAc(b1-3)Gal(b1-4)GlcNAc(b1-3)[Gal(b1-4)GlcNAc(b1-3)Gal(b1-4)GlcNAc(b1-6)]GalNAc
Procedure, shortened: as §1

[14] = target: Gal(b1-4)GlcNAc(b1-3)Gal(b1-4)GlcNAc(b1-6)[Gal(b1-3)]GalNAc
Procedure, shortened: as §1

[15] = target: Gal(b1-4)GlcNAc(b1-3)Gal(b1-4)[Fuc(a1-3)GlcNAc(b1-6)]Gal(b1-4)Glc
Procedure, shortened: as §1

[16] = target: Gal(b1-4)GlcNAc(b1-3)Gal(b1-4)[Fuc(a1-3)]GlcNAc(b1-3)Gal(b1-4)[Fuc(a1-3)]GlcNAc
Procedure, shortened: as §1

[17] = target: Gal(b1-4)GlcNAc(b1-3)GalNAc
Procedure, shortened: as §1

[18] = target: Gal(b1-4)GlcNAc(b1-3)[Fuc(a1-3)GlcNAc(b1-6)]Gal(b1-4)Glc
Procedure, shortened: as §1

[19] = target: Gal(b1-4)GlcNAc(b1-3)[Gal(b1-4)GlcNAc(b1-6)]Gal(b1-4)GlcNAc
Procedure, shortened: as §1

[20] = target: Gal(b1-4)GlcNAc(b1-3)[Gal(b1-4)GlcNAc(b1-6)]GalNAc
Procedure, shortened: as §1

[21] = target: Gal(b1-4)GlcNAc(b1-3)[GlcNAc(b1-6)]Gal(b1-4)GlcNAc
Procedure, shortened: as §1

[22] = target: Gal(b1-4)GlcNAc(b1-6)Gal(b1-4)GlcNAc
Procedure, shortened: as §1

[23] = target: Gal(b1-4)GlcNAc(b1-6)GalNAc
Procedure, shortened: as §1

[24] = target: Gal(b1-4)GlcNAc(b1-6)[Gal(b1-3)]GalNAc
Procedure, shortened: as §1

[25] = target: Gal(b1-4)GlcNAc(b1-6)[Gal(b1-4)GlcNAc(b1-3)]GalNAc
Procedure, shortened: as §1

Gal(b1-4)GlcNAc6P = target: Gal(b1-4)GlcNAc6P
Procedure, shortened: as §1

Gal(b1-6)Gal = target: Gal(b1-6)Gal
Procedure, shortened: as §1

Gal3S(b1-3)GalNAc = target: Gal3S(b1-3)GalNAc
Procedure, shortened: as §1

Gal3S(b1-3)GlcNAc = target: Gal3S(b1-3)GlcNAc
Procedure, shortened: as §1

[26] = target: Gal3S(b1-3)[Fuc(a1-4)]GlcNAc
Procedure, shortened: as §1

Gal3S(b1-4)Glc = target: Gal3S(b1-4)Glc
Procedure, shortened: as §1

Gal3S(b1-4)Glc6S = target: Gal3S(b1-4)Glc6S
Procedure, shortened: as §1

Gal3S(b1-4)GlcNAc = target: Gal3S(b1-4)GlcNAc
Procedure, shortened: as §1

Gal3S(b1-4)GlcNAc6S = target: Gal3S(b1-4)GlcNAc6S
Procedure, shortened: as §1

[27] = target: Gal3S(b1-4)[Fuc(a1-3)]Glc
Procedure, shortened: as §1

[28] = target: Gal3S(b1-4)[Fuc(a1-3)]Glc6S
Procedure, shortened: as §1

[29] = target: Gal3S(b1-4)[Fuc(a1-3)]GlcNAc
Procedure, shortened: as §1

B1: PpFlo2 (Pichia pastoris) (protein)
chain: MGSSHHHHHHSSGLVPRGSHMDDSGNGDNSDTAYGCDITTNAVDGFDATIYQYNANDLRLIRDPTFMSTGYLGRNVLNKISGVTVPGFNIWNPSSRTATVYGVKNVNYYNMVLELKGYFKADVSGDYKLTLSHIDDSSMLFFGKETAFKCCDAGSIPLNEAPTDYSLFTIKPSNQVNSEVISATQYLEAGKYYPVRIVFVNALERARFDFKLTIPSGAVLDDFQNYIYQFGDLDENSCHE
- glycan array binding signal (z-score) [1]: -0.25
- glycan array binding signal (z-score) [2]: -0.157
- glycan array binding signal (z-score) [3]: -0.237
- glycan array binding signal (z-score) [4]: -0.261
- glycan array binding signal (z-score) [5]: -0.228
- glycan array binding signal (z-score) [6]: -0.243
- glycan array binding signal (z-score) [7]: -0.253
- glycan array binding signal (z-score) [8]: -0.112
- glycan array binding signal (z-score) [9]: -0.24
- glycan array binding signal (z-score) [10]: -0.202
- glycan array binding signal (z-score) [11]: -0.187
- glycan array binding signal (z-score) [12]: 0.339
- glycan array binding signal (z-score) [13]: -0.096
- glycan array binding signal (z-score) [14]: -0.267
- glycan array binding signal (z-score) [15]: -0.148
- glycan array binding signal (z-score) [16]: 0.409
- glycan array binding signal (z-score) [17]: -0.28
- glycan array binding signal (z-score) [18]: -0.175
- glycan array binding signal (z-score) [19]: -0.271
- glycan array binding signal (z-score) [20]: 0.061
- glycan array binding signal (z-score) [21]: 0.396
- glycan array binding signal (z-score) [22]: -0.297
- glycan array binding signal (z-score) [23]: -0.175
- glycan array binding signal (z-score) [24]: 0.004
- glycan array binding signal (z-score) [25]: -0.188
- glycan array binding signal (z-score) (Gal(b1-4)GlcNAc6P): -0.272
- glycan array binding signal (z-score) (Gal(b1-6)Gal): -0.299
- glycan array binding signal (z-score) (Gal3S(b1-3)GalNAc): -0.298
- glycan array binding signal (z-score) (Gal3S(b1-3)GlcNAc): -0.289
- glycan array binding signal (z-score) [26]: -0.286
- glycan array binding signal (z-score) (Gal3S(b1-4)Glc): -0.303
- glycan array binding signal (z-score) (Gal3S(b1-4)Glc6S): -0.25
- glycan array binding signal (z-score) (Gal3S(b1-4)GlcNAc): -0.295
- glycan array binding signal (z-score) (Gal3S(b1-4)GlcNAc6S): -0.354
- glycan array binding signal (z-score) [27]: -0.35
- glycan array binding signal (z-score) [28]: -0.288
- glycan array binding signal (z-score) [29]: -0.274

— the supplement of paper PMC8728848
